The list shows a part of the results. Many values rest on one well or one pass, so single values are uncertain.
What was measured:
Assay in all cases: cell count relative to DMSO control; melanoma cells; higher = more viable cells
Conditions in all cases: library dose: standard library concentration; 72 h
G361 = tested on: G361
IPC-298 = tested on: IPC-298
IST-MEL1 = tested on: IST-MEL1
LB2518-MEL = tested on: LB2518-MEL
LOXIMVI = tested on: LOXIMVI
MEL-HO = tested on: MEL-HO
MZ2-MEL = tested on: MZ2-MEL
MeWo = tested on: MeWo
RPMI7951 = tested on: RPMI7951
RVH-421 = tested on: RVH-421
SkMel28 = tested on: SkMel28
SkMel2 = tested on: SkMel2
SkMel30 = tested on: SkMel30
SkMel5 = tested on: SkMel5
UACC257 = tested on: UACC257
UACC62 = tested on: UACC62
WM115 = tested on: WM115
WM1716 = tested on: WM1716
WM1745 = tested on: WM1745
WM3526 = tested on: WM3526
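Also: cells treated in 1,536-well plates, then fixed and DAPI-stained, with nuclei counted from automated high-throughput microscope images.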

| SMILES | cell count (G361) [%] | cell count (IPC-298) [%] | cell count (IST-MEL1) [%] | cell count (LB2518-MEL) [%] | cell count (LOXIMVI) [%] | cell count (MEL-HO) [%] | cell count (MZ2-MEL) [%] | cell count (MeWo) [%] | cell count (RPMI7951) [%] | cell count (RVH-421) [%] | cell count (SkMel28) [%] | cell count (SkMel2) [%] | cell count (SkMel30) [%] | cell count (SkMel5) [%] | cell count (UACC257) [%] | cell count (UACC62) [%] | cell count (WM115) [%] | cell count (WM1716) [%] | cell count (WM1745) [%] | cell count (WM3526) [%] |
| --- | --- | --- | --- | --- | --- | --- | --- | --- | --- | --- | --- | --- | --- | --- | --- | --- | --- | --- | --- | --- |
| Cn1nnc2c(C(N)=O)ncn2c1=O [temozolomide] + COc1ccc2c(c1)CCC1C2CCC2(C)C(NCCCCCCN3C(=O)C=CC3=O)CCC12 [U73122] (first compound 10 µM, partner dose 2 µM) | 93.7 | 77.7 | 74.3 | 90.5 | 72.8 | 101 | 76.1 | 50 | 35.2 | 87.1 | 50.6 | 93.2 | 75.3 | 103 | 101 | 65.9 | 71 | 56.5 | 73.5 | 80.1 |
| O=C(O)[C@@H]1[O][Sb](=[O])([O][Sb]2(=[O])[O][C@H]([C@H](O)CO)[C@H](O)[C@H](C(=O)O)[O]2)[O][C@H]([C@H](O)CO)[C@@H]1O (some centres not stated) [stibogluconate] + COc1cc(N2CCC(N3CCN(C)CC3)CC2)ccc1Nc1ncc(Cl)c(Nc2ccccc2S(=O)(=O)C(C)C)n1 [NVP-TAE684] (first compound 10 µM, partner dose 0.4 µM) | 79.5 | 79.2 | 95 | 106 | 95.7 | 77.1 | 90.2 | 59.7 | 54.9 | 102 | 81.4 | 62.7 | 92.9 | 63.9 | 83.5 | 82.6 | 57.5 | 78.6 |  | 74.8 |
| O=C(Nc1cc(C(F)(F)F)cc(C(F)(F)F)c1)c1cc(Cl)ccc1O + C[C@@H](Oc1cc(-c2cnn(C3CCNCC3)c2)cnc1N)c1c(Cl)ccc(F)c1Cl [Crizotinib] (first compound 0.08 µM, partner dose 1 µM) | 123 | 103 | 107 | 107 | 163 | 93 | 118 | 83.9 | 94.8 | 107 | 70.9 | 118 | 89.6 | 77 | 72.2 | 82.1 | 80.4 | 91.3 | 93.4 | 85 |
| O=C(O)[C@@H]1[O][Sb](=[O])([O][Sb]2(=[O])[O][C@H]([C@H](O)CO)[C@H](O)[C@H](C(=O)O)[O]2)[O][C@H]([C@H](O)CO)[C@@H]1O (some centres not stated) [stibogluconate] + Oc1cc(-c2nc(-c3ccccc3)[nH]c2-c2ccncc2)ccc1Cl [L779450] (first compound 10 µM, partner dose 1 µM) | 53.4 | 81.6 | 84.7 | 74 | 96.8 | 79.7 | 93.8 | 66.9 | 87.5 | 100 | 40.5 | 24.7 | 75.8 | 73 | 90.2 | 48.5 | 47.9 | 64.8 |  | 45.2 |
| O=C(Nc1ccccc1)c1cc([N+](=O)[O-])ccc1Cl + CCCCCCCCCCCC1=C(O)C(=O)C=C(O)C1=O [Embelin] (first compound 10 µM, partner dose 6 µM) | 80.4 | 59.4 | 70.8 | 70.2 | 76 | 62.4 | 62 | 97 | 91 | 61.5 | 57.1 | 82.2 | 97.9 | 77.8 | 93.3 | 74.2 | 75.1 | 100 | 63.3 | 99.8 |
| O=C(Nc1cc(C(F)(F)F)cc(C(F)(F)F)c1)c1cc(Cl)ccc1O + Cc1nc(Nc2ncc(C(=O)Nc3c(C)cccc3Cl)s2)cc(N2CCN(CCO)CC2)n1 [dasatanib] (first compound 0.08 µM, partner dose 0.02 µM) | 70.5 | 90.7 | 62.1 | 114 | 16.4 | 65 | 55.1 | 80.9 | 30.9 | 73.9 | 74.5 | 98.6 | 88.4 | 65 | 57.2 | 84.8 | 69 | 67.6 | 42.1 | 85.7 |
| Cc1cc(N2CCOCC2)cc2[nH]c(-c3c(NC[C@@H](O)c4cccc(Cl)c4)cc[nH]c3=O)nc12 + O=C(Nc1cccc(Cl)c1)Nc1ncc(CCNc2ncnc3ccsc23)s1 [SNS314] (first compound 1 µM, partner dose 0.004 µM) | 67.7 | 63.6 | 58.2 | 71.2 | 41.2 | 68.1 | 80 | 62.3 | 45.3 | 74.8 | 49.4 | 62.7 | 80.5 | 65.7 | 56.8 | 93.9 | 46.3 | 64.8 | 45.8 | 69.7 |
| Cn1nnc2c(C(N)=O)ncn2c1=O [temozolomide] + C[C@@H]1CCN(C(=O)CC#N)C[C@@H]1N(C)c1ncnc2[nH]ccc12 [CP690550] (first compound 10 µM, partner dose 5 µM) | 108 | 81.9 | 72.9 | 83.8 | 83.9 | 96.3 | 93.4 | 91.1 | 91.1 | 114 | 40.5 | 104 | 59 | 120 | 93 | 69.2 | 98.7 | 62.5 | 90.7 | 104 |
| O=C(Nc1cc(C(F)(F)F)cc(C(F)(F)F)c1)c1cc(Cl)ccc1O + C#Cc1cccc(Nc2ncnc3cc(OCCOC)c(OCCOC)cc23)c1 [erlotinib] (first compound 0.08 µM, partner dose 4 µM) | 71.5 | 65.9 | 86.7 | 66.9 | 92.4 | 78.1 | 73.8 | 66.4 | 92.1 | 17.3 | 57.1 | 98.6 | 81.3 | 79.4 | 88.9 | 50.2 | 66.6 | 107 | 58.6 | 75.9 |
| O=C(O)c1ccc2c(c1)nc(Nc1cccc(Cl)c1)c1ccncc12 + NC(=O)Nc1cc(-c2cccc(F)c2)sc1C(=O)N[C@H]1CCCNC1 [AZD7762] (first compound 2 µM, partner dose 0.1 µM) | 64.1 | 104 | 77.3 | 114 | 53.7 | 55.8 | 79.8 | 82.2 | 28.3 | 93.7 | 38.6 | 99 | 84 | 77.9 | 80 | 83.7 | 61.4 | 55.9 | 77.6 | 39 |
| O=C(Nc1cc(C(F)(F)F)cc(C(F)(F)F)c1)c1cc(Cl)ccc1O + Nc1nc(F)nc2c1ncn2[C@@H]1O[C@H](CO)[C@@H](O)[C@@H]1O [fludarabine] (first compound 0.08 µM, partner dose 1 µM) | 85.9 | 80.9 | 83.6 | 111 | 131 | 75.1 | 125 | 112 | 68 | 88.5 | 2.2 | 2.49 | 23.5 | 33.4 | 53.7 | 83.7 | 107 | 110 | 98.2 | 36 |
| Cn1nnc2c(C(N)=O)ncn2c1=O [temozolomide] + O=C(O)c1ccc(-c2c[nH]c3ncc(-c4ccccc4)cc23)cc1C1CCCC1 [GSK650394] (first compound 10 µM, partner dose 0.8 µM) | 64.2 | 85.9 | 56.2 | 80.3 | 75 | 73 | 82 | 88.2 | 114 | 74.2 | 31.2 | 74.2 | 61.8 | 77.7 | 73.5 | 54.4 | 70.2 | 68.8 | 67.5 | 76.7 |
| Cn1nnc2c(C(N)=O)ncn2c1=O [temozolomide] + Cn1cncc1[C@@](N)(c1ccc(Cl)cc1)c1ccc2c(c1)c(-c1cccc(Cl)c1)cc(=O)n2C [tipifarnib] (first compound 10 µM, partner dose 0.05 µM) | 83.7 | 95.9 | 92.6 | 68.9 | 72.2 | 99.7 | 107 | 100 | 101 | 91.7 | 68.8 | 79.8 | 81.4 | 71.4 | 103 | 74.8 | 83.4 | 78.5 | 91.4 | 74.5 |
| O=C(O)[C@@H]1[O][Sb](=[O])([O][Sb]2(=[O])[O][C@H]([C@H](O)CO)[C@H](O)[C@H](C(=O)O)[O]2)[O][C@H]([C@H](O)CO)[C@@H]1O (some centres not stated) [stibogluconate] + Cn1nnc2c(C(N)=O)ncn2c1=O [temozolomide] (first compound 10 µM, partner dose 10 µM) | 88.8 | 70.6 | 73.7 | 106 | 74.2 | 79.7 | 80.1 | 95.6 | 124 | 143 | 29.3 | 79.1 | 60.7 | 107 | 118 | 58.3 | 94.6 | 51.5 | 82.3 | 89.1 |
| O=C(Nc1ccccc1)c1cc([N+](=O)[O-])ccc1Cl + COc1ccc(COc2ccc(Cc3cnc(N)nc3N)cc2OC)cc1 [GW2580] (first compound 10 µM, partner dose 5 µM) | 71.3 | 89.2 | 102 | 80.9 | 82.9 | 84.3 | 88.3 | 86.1 | 93.6 | 86.2 | 75.6 | 91.3 | 81.6 | 55.4 | 77.8 | 105 | 65.9 | 79.2 | 71.6 | 91.3 |
| O=C(Nc1ccccc1)c1cc([N+](=O)[O-])ccc1Cl + COc1cc(N2CCC(N3CCN(C)CC3)CC2)ccc1Nc1ncc(Cl)c(Nc2ccccc2S(=O)(=O)C(C)C)n1 [NVP-TAE684] (first compound 10 µM, partner dose 0.4 µM) | 59.5 | 84.2 | 92.7 | 68.2 | 89.4 | 73.1 | 16.2 | 69.8 | 58 | 83.5 | 49.9 | 65.3 | 84.4 | 63.1 | 75.7 | 62.6 | 62.1 | 83.4 | 57.8 | 73.7 |
| O=C(O)[C@@H]1[O][Sb](=[O])([O][Sb]2(=[O])[O][C@H]([C@H](O)CO)[C@H](O)[C@H](C(=O)O)[O]2)[O][C@H]([C@H](O)CO)[C@@H]1O (some centres not stated) [stibogluconate] + O=C(O)C(=O)Nc1sc2c(c1C(=O)O)CCNC2 [TCS401] (first compound 10 µM, partner dose 8.33333 µM) | 96.7 | 94.3 | 107 | 102 | 88.2 | 81.8 | 100 | 103 | 120 | 120 | 99.8 | 102 | 158 | 82.8 | 90.5 | 121 | 92.1 | 80.7 |  | 108 |

Source: the supplement of paper PMC4604168 (melanoma cell lines)
